In the supplement of paper PMC3334620:
In all, about 33,000 sequences were measured (“E-score (-0.5 to 0.5)”: median about -0.012, highest 2% from about 0.29 on). This is one part of the list.

Target: T1, Ybr033w (UniProt P38073)
T1 sequence: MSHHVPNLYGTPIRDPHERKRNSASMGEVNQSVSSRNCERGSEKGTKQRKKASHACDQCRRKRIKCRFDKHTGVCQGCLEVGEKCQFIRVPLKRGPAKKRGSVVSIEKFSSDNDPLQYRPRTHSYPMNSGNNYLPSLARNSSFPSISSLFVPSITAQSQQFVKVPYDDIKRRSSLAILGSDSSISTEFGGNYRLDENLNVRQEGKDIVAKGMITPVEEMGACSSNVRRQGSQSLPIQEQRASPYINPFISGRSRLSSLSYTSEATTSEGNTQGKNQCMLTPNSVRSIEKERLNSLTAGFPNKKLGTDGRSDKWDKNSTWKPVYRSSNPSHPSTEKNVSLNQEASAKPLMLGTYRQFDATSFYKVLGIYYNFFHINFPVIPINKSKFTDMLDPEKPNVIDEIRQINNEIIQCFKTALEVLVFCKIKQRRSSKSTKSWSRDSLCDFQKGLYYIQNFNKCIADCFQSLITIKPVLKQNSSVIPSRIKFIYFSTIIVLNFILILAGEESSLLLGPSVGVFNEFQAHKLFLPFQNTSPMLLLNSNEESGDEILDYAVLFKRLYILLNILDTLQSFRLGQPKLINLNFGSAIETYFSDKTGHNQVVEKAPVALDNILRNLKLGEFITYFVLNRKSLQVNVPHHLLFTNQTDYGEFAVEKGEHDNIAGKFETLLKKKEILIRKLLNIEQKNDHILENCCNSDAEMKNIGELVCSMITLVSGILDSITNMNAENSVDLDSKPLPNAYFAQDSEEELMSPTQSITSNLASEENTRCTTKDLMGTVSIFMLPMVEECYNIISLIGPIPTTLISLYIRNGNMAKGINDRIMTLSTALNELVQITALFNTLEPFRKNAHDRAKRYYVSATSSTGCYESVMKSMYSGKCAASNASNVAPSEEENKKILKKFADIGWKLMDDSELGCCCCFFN
Experiment: PBM E-score (8-mer binding enrichment) (E-score (-0.5 to 0.5)); higher = stronger / more preferred TF binding; most listed sequences are background and not binding sites
Details: protein concentration: 200 nM; construct: GST-full length
Summary of the method: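 Each ungapped eight-base word and its reverse complement, pooled, received an E-score from the Universal PBM Analysis Suite. Underlying scans, normalised with masliner, recorded fluorescent anti-GST bound to GST-tagged yeast transcription factors. These were applied at about 100-200 nM to universal all-10-mer Agilent arrays double-stranded by primer extension.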

Row | Sequence | PBM E-score
1 | AGGCCGCG | -0.0558
2 | GAACGGAA | 0.0333
3 | CAAATGAG | 0.0404
4 | ACCGGAAT | 0.157
5 | GATAGAGA | 0.0298
6 | AATATTGG | 0.047
7 | CGGATGCC | -0.168
8 | AGCCCGTC | -0.243
9 | AAAACGAA | 0.169
10 | AATGGTTG | 0.0973
11 | ACGTGGCG | -0.113
12 | ATGCTCTC | -0.247
13 | CTTAAGGA | -0.0462
14 | GTTCGAAC | 0.209
15 | AGGTGCGG | -0.0339
16 | TATATAGA | 0.219
17 | AAACATTT | 0.269
18 | AAGACAGA | 0.0921
19 | GGTGCACA | -0.168
20 | ATCGAAAG | 0.185
21 | AGGAACCC | -0.224
22 | CCTATTTA | 0.0765
23 | ACCGCACT | -0.0787
24 | CAACAGGA | -0.0988
25 | AATAACAG | 0.133

Row | Sequence | PBM E-score
26 | AGTCGAAG | 0.00687
27 | CTACGGGA | -0.0259
28 | ATACCCGC | 0.00388
29 | ACCTCGCT | 0.0298
30 | TGTGCACA | -0.0768
31 | CCGTTAGA | 0.0712
32 | GCAGACGA | -0.0955
33 | ATACGACG | 0.135
34 | CAACGTAG | -0.114
35 | CTGACCCA | -0.29
36 | CGCTCTTA | 0.0937
37 | GCGGCACC | -0.1
38 | GCAAGTTA | 0.0982
39 | GCTGCGAC | 0.0106
40 | CCCGTTGC | -0.267
41 | CGCGGAGC | -0.164
42 | GGTTTGAA | -0.0528
43 | CATAGTGC | 0.0144
44 | AAGTTAGC | 0.134
45 | ATATTCCG | 0.428
46 | AGTGTGTC | 0.00564
47 | GTCCGAAA | 0.122
48 | ACACCCGT | -0.108
49 | GGGCTATA | -0.101
50 | CGCAAGGA | 0.0217

Row | Sequence | PBM E-score
51 | ACCACTAA | 0.159
52 | AAGGTGGT | 0.0271
53 | ACGACAAT | 0.104
54 | ATTAGAGA | 0.115
55 | CGAACAAG | -0.0298
56 | CCAGTCAG | -0.144
57 | GCATGATA | 0.109
58 | CCATGGAG | -0.2
59 | CAAAGAAG | 0.0853
60 | AGCGGGTC | -0.332
61 | GACAGAAA | 0.16
62 | GACAGCAC | -0.00022
63 | CTCACGAA | -0.0165
64 | AAATTGAA | 0.127
65 | AGGAGGGG | -0.256
66 | GCACATTA | 0.0714
67 | AACTCGCA | -0.0927
68 | AAGAGAAC | 0.109
69 | CCTAGCCA | -0.0517
70 | ATATGGGA | 0.0235
71 | ATCTGTCC | -0.196
72 | AAGGAAAT | 0.185
73 | CGGCTTAC | 0.0765
74 | AGGCAGGA | -0.106
75 | GTGCCGAA | -0.0593

Row | Sequence | PBM E-score
76 | CGCAGCAG | -0.109
77 | AGTTGTAC | 0.0858
78 | CGAGAGTC | -0.177
79 | AAGAACAG | 0.0974
80 | CATACTAA | 0.195
81 | CTGGGCAC | -0.178
82 | CTATTCTC | 0.12
83 | ACTGATAA | 0.138
84 | ACTCCTCT | -0.183
85 | CCGACGTC | -0.0886
86 | TAGAGATA | 0.167
87 | CTTGCTAC | -0.0863
88 | ACTGGATA | 0.235
89 | AACCCCGT | -0.093
90 | ACACTTAA | 0.203
91 | ATGTAGGG | -0.0536
92 | CCCACGCA | -0.0607
93 | TCTGCTAA | -0.0429
94 | AGTTAATG | 0.216
95 | ACGTGGTC | -0.0933
96 | GATACCAA | 0.111
97 | CTTGACGA | -0.169
98 | CATCGCGC | -0.113
99 | AATAATAG | 0.202
100 | GCCTACGC | -0.0539

Row | Sequence | PBM E-score
101 | CTCGCAAC | -0.052
102 | ACGTGGTA | 0.0672
103 | CAAAAAAG | 0.261
104 | AAAGTATG | -0.0102
105 | GATACTCC | -0.0236
106 | AGCGAATC | 0.106
107 | AAACAGTC | -0.0941
108 | CAGTATAA | 0.152
109 | GCCTAGAC | -0.151
110 | CGAGTCGA | 0.0303
111 | TCGTTTCA | 0.181
112 | CGGGAGAG | -0.174
113 | ACATTGCC | -0.0501
114 | TCGAAGAA | -0.0772
115 | ACAGAAAT | 0.137
116 | CCCAGTAA | 0.033
117 | ACCTGTAA | 0.186
118 | CTTTATGC | 0.103
119 | GCGTTAAC | -0.073
120 | TTGTAAAA | 0.08
121 | ACATCGAG | -0.171
122 | AAGTGCAT | 0.0284
123 | ACTATCTG | -0.0489
124 | CCCTCCAA | -0.221
125 | AGGCTCAT | -0.0489

Row | Sequence | PBM E-score
126 | ACCAGAAA | 0.178
127 | CTTAAAAG | -0.139
128 | TAATCCGA | 0.326
129 | CGAGATAG | -0.107
130 | AAGTTAGA | 0.235
131 | ACAAGGAG | 0.0547
132 | ATTCGCAG | 0.113
133 | ACAAGATG | 0.0627
134 | AACGGCTG | -0.126
135 | AAATTGGC | 0.0475
136 | CCATACAC | -0.0116
137 | AAGCCACG | -0.181
138 | AGCGCGAG | -0.116
139 | GCACGTCA | -0.248
140 | CCTACAAC | -0.00318
141 | ATCACGTA | 0.213
142 | GCCACACC | -0.134
143 | ATTTGTAG | 0.00678
144 | AGCCAACA | -0.0335
145 | ATCTCAGG | -0.0536
146 | AGAGCGAT | -0.0718
147 | ACGCGTGC | -0.0228
148 | AGGGTGGG | -0.0779
149 | ACCAAAGC | 0.0581
150 | ATGATTTG | 0.0992

Row | Sequence | PBM E-score
151 | CATGTTAG | 0.117
152 | AGCCGGCA | -0.169
153 | AAGCGCCT | -0.28
154 | GAGGGCCC | -0.324
155 | CACTTTGA | -0.16
156 | TAGGCATA | 0.011
157 | GCATTGGC | -0.124
158 | GCAATGTA | 0.0109
159 | ACCCCTGC | -0.333
160 | CGAATTTA | 0.231
161 | ATTGGATC | 0.136
162 | CGGGAGGC | -0.326
163 | ACTAATCC | 0.0658
164 | TGGTACAA | 0.0171
165 | GCCTGCCC | -0.358
166 | TATTATGA | 0.0716
167 | CTGAGTTA | -0.067
168 | AACCGCGG | 0.108
169 | CACATCGA | -0.0875
170 | AAGAACAT | 0.273
171 | CAAAGTTG | 0.0403
172 | GTCCGAGA | 0.047
173 | ATATTCGC | 0.134
174 | AAGGGGAT | -0.0478
175 | AACTCACT | -0.0239

Row | Sequence | PBM E-score
176 | TCCCCGCA | -0.168
177 | CGGCTAGC | -0.14
178 | AGTCTTGG | -0.0411
179 | CATTGGCA | -0.0993
180 | GGCCAAAC | -0.248
181 | TCATGCAA | 0.149
182 | CTGAATAC | 0.173
183 | AAGTCGAT | -0.0156
184 | AAATCTCC | -0.215
185 | CAGAAAAG | 0.0452
186 | CAGATAGG | -0.0619
187 | AGCGATAC | 0.0186
188 | AACTGTTC | 0.142
189 | GAAATCGC | 0.00105
190 | ACGCGCAG | -0.221
191 | CCCCCTAG | -0.387
192 | CAATTCGG | 0.0708
193 | CTGGAGAA | -0.115
194 | ACTCATCT | 0.0382
195 | GATACCCC | -0.158
196 | AATCCAGC | 0.0372
197 | CCTATGTC | -0.0437
198 | CCACACTA | 0.196
199 | AGCCCCAA | -0.21
200 | AAGGTATT | 0.152

Row | Sequence | PBM E-score
201 | CCCATGAC | -0.111
202 | CAATAGTC | -0.065
203 | ACCGGATA | 0.0698
204 | AAAACGTT | 0.0685
205 | CCTCAAGC | -0.194
206 | GTGGACTA | 0.00735
207 | GGCAGGCA | -0.228
208 | CAAATAAA | 0.2
209 | ACGCGCCT | -0.00355
210 | GTGCGGGA | -0.13
211 | AAGCGGTG | -0.194
212 | AGTGCGCG | -0.148
213 | GTGATCAA | 0.056
214 | ATGTTACC | 0.102
215 | CTAATGAG | 0.114
216 | ATAGCACG | -0.202
217 | CCGCACGA | -0.0691
218 | AAGCACTT | 0.0407
219 | AGAGCCAC | 0.0666
